# Measured values from the supplement of paper PMC7826260.
# Some of the results follow. Each Rep nickase domain was tested in vitro on the same pool of single strands (1 h at 37 °C, 3 µM enzyme); the outer parts of the 90-letter strands are left off. A value is the log2 ratio of uncut reads to the pool without enzyme; the lower, the more was cut; hits are not called. Because reads are shares of a total, they shift together; values above 0 arise when much of the pool is cut.
# Key:
# Experiment in all cases: uncleaved DNA left, log2 of reads against the no-enzyme library (log2 ratio); higher = less cleavage (more negative = more Rep cleavage of the k-mer); sequences stand for … in CTCGTCCG…ACCGGAGA
# [1] = system: T1, Rep nickase domain of Muscovy duck circovirus
# T1 sequence (protein, residues 1-111, tag omitted): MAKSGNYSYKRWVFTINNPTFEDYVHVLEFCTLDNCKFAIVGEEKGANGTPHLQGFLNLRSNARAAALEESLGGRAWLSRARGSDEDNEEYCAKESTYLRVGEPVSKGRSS
# Method: (§1)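 A pool of 90-nt single-stranded DNAs with seven random bases just before the constant AC of the nick site (name = the seven bases) was cut by 3 µM recombinant His6-SUMO-tagged Rep nickase domain (300 nM DNA, 50 mM HEPES pH 8.0, 50 mM NaCl, 1 mM MnCl2, 1 h, 37 °C, three replicates). Uncut DNA was amplified and sequenced.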
# [2] = system: T2, Rep nickase domain of banana bunchy top virus
# T2 sequence (protein, residues 1-94, tag omitted): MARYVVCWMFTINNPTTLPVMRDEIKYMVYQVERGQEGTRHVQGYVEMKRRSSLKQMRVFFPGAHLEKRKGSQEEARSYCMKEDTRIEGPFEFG
# Method: as §1
# [3] = system: T3, Rep nickase domain of cabbage leaf curl virus
# T3 sequence (protein, residues 1-116, tag omitted): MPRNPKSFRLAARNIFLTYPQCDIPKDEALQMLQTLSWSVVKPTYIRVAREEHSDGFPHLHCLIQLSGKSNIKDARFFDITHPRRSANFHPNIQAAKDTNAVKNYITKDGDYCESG
# Method: as §1
# [4] = system: T4, Rep nickase domain of chickpea chlorotic dwarf virus
# T4 sequence (protein, residues 1-124, tag omitted): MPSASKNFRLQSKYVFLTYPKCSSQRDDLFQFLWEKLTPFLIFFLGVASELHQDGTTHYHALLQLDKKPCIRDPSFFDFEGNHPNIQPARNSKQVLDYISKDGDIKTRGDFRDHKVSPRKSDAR
# Method: as §1
# [5] = system: T5, Rep nickase domain of faba bean necrotic yellows virus
# T5 sequence (protein, residues 1-98, tag omitted): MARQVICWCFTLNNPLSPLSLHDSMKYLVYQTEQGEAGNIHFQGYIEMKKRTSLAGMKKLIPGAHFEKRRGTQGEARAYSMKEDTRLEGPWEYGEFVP
# Method: as §1
# [6] = system: T6, Rep nickase domain of maize striate mosaic virus
# T6 sequence (protein, residues 1-117, tag omitted): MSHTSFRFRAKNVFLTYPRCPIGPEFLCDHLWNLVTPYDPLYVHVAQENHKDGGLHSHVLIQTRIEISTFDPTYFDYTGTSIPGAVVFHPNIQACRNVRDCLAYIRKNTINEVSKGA
# Method: as §1
# [7] = system: T7, Rep nickase domain of porcine circovirus 2
# T7 sequence (protein, residues 2-116, tag omitted): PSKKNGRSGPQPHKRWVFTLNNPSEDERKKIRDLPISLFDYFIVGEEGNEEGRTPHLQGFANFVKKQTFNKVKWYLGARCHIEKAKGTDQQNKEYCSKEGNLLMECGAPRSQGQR
# Method: as §1
# [8] = system: T8, Rep nickase domain of tomato golden mosaic virus
# T8 sequence (protein, residues 1-124, tag omitted): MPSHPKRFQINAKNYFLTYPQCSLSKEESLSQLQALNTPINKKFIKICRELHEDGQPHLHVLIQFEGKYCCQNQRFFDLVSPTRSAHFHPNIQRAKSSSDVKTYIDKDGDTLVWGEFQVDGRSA
# Method: as §1
# [9] = system: T9, Rep nickase domain of tomato yellow leaf curl virus
# T9 sequence (protein, residues 1-136, tag omitted): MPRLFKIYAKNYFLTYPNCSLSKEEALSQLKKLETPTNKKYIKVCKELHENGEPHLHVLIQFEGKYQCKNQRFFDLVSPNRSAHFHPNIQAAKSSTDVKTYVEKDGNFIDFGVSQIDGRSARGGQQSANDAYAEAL
# Method: as §1
# [10] = system: T10, Rep nickase domain of wheat dwarf virus
# T10 sequence (protein, residues 1-137, tag omitted): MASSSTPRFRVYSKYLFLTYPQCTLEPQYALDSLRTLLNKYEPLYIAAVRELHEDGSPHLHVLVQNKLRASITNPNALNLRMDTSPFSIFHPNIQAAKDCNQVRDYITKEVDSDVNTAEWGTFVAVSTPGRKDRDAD
# Method: as §1
Sequence,uncleaved DNA left (log2) [1],uncleaved DNA left (log2) [2],uncleaved DNA left (log2) [3],uncleaved DNA left (log2) [4],uncleaved DNA left (log2) [5],uncleaved DNA left (log2) [6],uncleaved DNA left (log2) [7],uncleaved DNA left (log2) [8],uncleaved DNA left (log2) [9],uncleaved DNA left (log2) [10]
TACAGCG,0.00245,-0.0387,-0.681,0.557,0.014,-0.318,0.0639,-0.128,-0.0773,-0.0869
ATCTTCA,-0.0978,-0.0757,-0.211,-1.4,-0.0343,-0.838,-0.397,-0.0194,-0.0149,0.0314
CTTTCAC,-0.171,-0.135,-0.199,-0.706,-0.0694,-0.863,-0.142,-0.202,-0.143,-0.113
AGCTCCC,0.0477,0.0135,0.241,0.394,0.00818,0.519,-0.0179,0.0142,-0.0186,0.113
CTTTTTC,-0.00816,0.0174,0.00291,-0.253,-0.029,-0.848,0.0332,-0.0507,0.019,-0.00555
GGCGGTG,0.0213,-0.0314,-0.00142,0.383,-0.116,1.34,0.136,0.0124,-0.119,-0.1
GAAGTTG,0.000917,-0.0661,0.186,0.843,-0.00111,0.915,0.0279,-0.0414,-0.15,-0.0299
ACGTGAT,0.0313,0.173,0.165,0.456,0.205,0.666,-2.75,0.137,-0.0183,-0.0571
TTGTGCA,-0.145,-0.159,-0.459,-0.837,-0.0226,-1.13,-0.229,-0.0953,-0.00442,-0.155
TCACCTG,-0.0787,-0.0621,-0.0947,-0.213,0.0102,0.267,0.02,-0.155,-0.0841,-0.0218
GGATTCA,0.0624,0.0636,0.499,1.14,0.0109,1.8,0.112,0.0183,0.132,0.222
CCTGTCT,-0.0697,-0.155,-0.267,-1.63,-0.133,-0.748,-0.375,-0.185,-0.0696,-0.225
CTCCAAA,0.0489,-0.00731,0.103,-0.0578,0.0238,-0.663,0.0564,-0.134,0.0224,0.0101
ACTTCTG,-0.0103,0.000239,-0.484,-0.128,0.0453,-0.817,0.218,0.022,-0.0333,-0.0126
GGATTAT,-0.0378,0.14,0.538,1.44,-0.0759,1.98,-0.108,0.0289,0.0714,0.103
GACTTAG,0.161,0.11,-0.476,-0.453,0.0559,-0.92,0.113,0.056,0.0238,0.0641
CGCATTT,0.112,0.0857,-0.155,-1.6,0.108,-0.562,-0.0843,0.0141,0.147,0.106
GTTCGTA,-0.0169,0.1,0.314,0.801,0.032,1.66,0.0506,0.0116,0.0224,0.0808
CCTCGGC,0.252,0.0706,0.167,0.0253,0.0134,-0.547,0.193,0.065,-0.000885,-0.0469
GGGCGTA,-0.0422,-0.0281,0.691,1.78,-0.267,2,0.184,-0.0401,-0.112,0.0457

Sequence,uncleaved DNA left (log2) [1],uncleaved DNA left (log2) [2],uncleaved DNA left (log2) [3],uncleaved DNA left (log2) [4],uncleaved DNA left (log2) [5],uncleaved DNA left (log2) [6],uncleaved DNA left (log2) [7],uncleaved DNA left (log2) [8],uncleaved DNA left (log2) [9],uncleaved DNA left (log2) [10]
CGCAAGC,-0.0232,-0.045,0.222,0.551,-0.0366,0.0452,-0.0342,0.0293,-0.107,0.0678
TGTCTCA,0.043,-0.036,0.23,0.0317,-0.0016,0.72,-0.000565,0.00435,0.0671,0.0746
CAAACAA,-0.0255,0.129,-0.0489,-0.93,0.0433,-0.673,0.0828,0.0428,0.0257,0.0222
TATGTAC,0.0817,0.00845,0.0782,-0.455,0.0849,-0.626,-0.0851,-0.0727,0.0697,0.0689
AGCCGCC,-0.134,-0.0134,0.0428,0.11,0.0105,0.126,0.0125,-0.0771,-0.0554,-0.0109
GGAATTG,0.051,0.0344,0.213,0.664,-0.00222,0.411,0.092,0.0127,-0.0116,0.0416
CATCCAA,-0.0299,-0.123,-0.0508,-0.466,-0.0935,-0.806,-0.0158,-0.179,-0.0906,-0.015
CTCGCCG,-0.131,-0.182,-0.895,-0.658,-0.31,-0.928,-0.002,-0.166,-0.184,-0.27
GTATCCG,0.00474,-0.0741,-0.564,-0.679,-0.00668,-0.909,0.141,-0.00337,-0.089,-0.059
TGGGTGT,0.144,0.00853,0.56,1.08,0.0166,1.56,0.103,-0.107,-0.0382,0.00574
TTCGCGC,0.0164,-0.0101,-0.817,-0.203,0.105,-0.942,0.111,-0.0837,0.0326,-0.212
TAGACTT,0.0651,-1.09,-0.94,-1.15,-0.828,1.53,-3.5,-0.0835,0.12,0.0231
TTCCATG,0.0291,0.0117,-0.325,-0.638,-0.0672,-1.19,0.1,-0.0726,-0.177,-0.0474
GTGGCCG,-0.0911,-0.119,-0.413,-0.145,-0.0177,-0.355,-0.00397,-0.0898,-0.0222,-0.0415
GCCCGAC,-0.22,-0.358,0.123,0.311,-0.229,-0.04,-0.047,-0.154,-0.171,-0.226
TTGGTGC,-0.0508,-0.0671,-0.512,-0.681,-0.0217,-1.05,-0.0294,-0.206,0.05,-0.166
TGGCCAC,-0.000229,0.101,0.324,0.916,-0.0149,1.57,0.147,-0.0467,0.136,0.0925
TCAGGGT,0.02,0.124,0.3,1.55,0.0562,1.87,0.0508,0.126,-0.0253,-0.00986
AATGAAT,0.0955,0.031,0.185,0.707,-0.007,1.17,-0.0151,0.0707,-0.127,0.0797
TTAGCAG,0.0899,0.0621,-0.503,-0.607,0.0461,-1.05,0.244,0.0618,0.0466,0.0515

Sequence,uncleaved DNA left (log2) [1],uncleaved DNA left (log2) [2],uncleaved DNA left (log2) [3],uncleaved DNA left (log2) [4],uncleaved DNA left (log2) [5],uncleaved DNA left (log2) [6],uncleaved DNA left (log2) [7],uncleaved DNA left (log2) [8],uncleaved DNA left (log2) [9],uncleaved DNA left (log2) [10]
CCCATTT,-0.101,-0.0474,-0.304,-2.59,-0.134,-0.829,-0.159,-0.0992,0.0042,-0.0761
GGCCTAT,-0.127,-0.0472,0.504,1.31,-0.0055,1.91,-0.0586,0.0221,0.038,0.113
CGTCTAT,0.0609,-0.00211,0.196,-0.262,-0.0139,0.0145,-0.0137,-0.0524,0.00622,0.115
AGCTAGA,0.0646,0.0684,0.128,0.703,0.0223,0.299,-0.129,0.0676,-0.0549,0.0777
CATATGT,0.123,-0.15,-0.0169,-0.587,0.0687,-0.888,-0.286,0.0888,0.129,0.0654
TCTGGCC,0.0518,-0.0396,-0.0167,0.397,-0.0261,0.788,0.251,-0.0652,0.042,-0.0379
GAGTCAA,0.0353,0.141,0.457,1.12,0.00606,1.45,-1.7,0.0953,0.151,0.185
CATTACG,0.0178,0.111,-0.537,0.861,0.0441,0.137,0.223,0.0103,0.263,0.0416
TCCTGCA,-0.022,-0.0201,-0.61,-1.14,-0.0174,-1.13,-0.202,-0.133,-0.0239,-0.0716
GCGACCA,-0.0549,0.0757,0.0316,0.412,-0.043,0.639,-0.0524,0.000483,0.0389,0.0551
CTATCCA,-0.0271,0.182,0.0437,-0.968,0.136,-0.371,0.0899,0.0495,0.256,0.182
CGCATGC,0.00789,0.0995,-0.397,-0.483,0.0246,-0.893,0.111,-0.00806,0.0441,0.0382
GGCTCAC,0.0201,0.042,0.428,1.03,-0.0203,1.66,0.117,0.0754,0.0562,0.115
CAGCTCG,-0.109,-0.0502,-0.733,-0.517,0.04,-0.779,0.0992,-0.0713,-0.0624,0.0419
CGCCCGG,0.0181,-0.0373,0.177,0.843,-0.13,1.05,0.000102,-0.0879,-0.132,-0.0309
ACTCGTG,0.108,0.138,-0.681,-0.274,0.194,-0.882,0.235,0.06,0.0433,-0.0473
ATGGCAA,0.125,-0.0638,0.0611,0.174,-0.058,-0.338,0.125,0.0687,0.0944,-0.0044
TTGGATA,0.0191,0.101,0.191,0.705,0.00673,1.22,0.083,0.0844,-0.0514,-0.00111
GGCGGGG,0.138,0.00468,0.551,0.951,-0.0119,1.63,0.187,0.0985,-0.109,0.00427
ACTAACA,-0.0794,0.00498,-0.626,-2.06,0.0208,-0.886,-0.0513,0.0173,-0.122,0.00425
